Results: the supplement of paper PMC10126150
Values marked as one replicate rest on one cluster of the flow cell; about a third of the high ones do not repeat.
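Also: ATP exposure 15 min at 22 °C before imaging.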

Each sequence was assayed on ATP (assay: switch fluorescence ratio, 500 uM ATP over buffer (Cy3 cluster intensity, sum of 5 cycles each) (fold (ratio)); higher = stronger signal-on switching upon ATP binding; sequences stand for … in TCGTCGGCAGCGTCAGATGTGTATAAGAGACAGTTTTTTTTTTTTTTTTTTTTTTTTT…TC). Conditions: aptamer strand: ATP DNA aptamer (quencher-CACCTGGGGGAGTATTGCGGAGGAAGG + anchor), 100 nM annealed; ATP concentration: 500 uM; one replicate.
Outline: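 The fluorescence ratio divides summed target-cycle Cy3 intensity by summed buffer-cycle Cy3 intensity for each cluster and is averaged per switch-domain sequence. Cy3-labelled switching-strand clusters on a modified Illumina MiSeq flow-cell were annealed to 100 nM quencher-labelled ATP aptamer, then imaged in selection buffer and again after 15 min with 500 uM ATP at 22 °C. Five such cycles were run, with NaOH stripping and re-annealing between them, and clusters outside 100-1000 RFU were excluded.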
In the case of TATTAGAGG, the switch fluorescence ratio was 1.02. In the case of AGTTAAGTGT, the switch fluorescence ratio was 0.979. TAATCCGAAA was tested, and the switch fluorescence ratio was 2.32. TCTTACTTTA showed a switch fluorescence ratio of 1.02. With CCACCAGGTA the switch fluorescence ratio was 1.23. CCATAGAGCG gave a switch fluorescence ratio of 0.995. Work on TAACCTTTCT yielded a switch fluorescence ratio of 1.71. For GCATTTGCAG, the switch fluorescence ratio was 1.01. CGTCGTCCCG showed a switch fluorescence ratio of 1.02. For AGCGAAGATT, the switch fluorescence ratio was 0.954. With ATTTTGTCAG the switch fluorescence ratio was 1.01. Sequence AGAAGGTCGA has a switch fluorescence ratio of 1.02. Work on AGGGATATTA yielded a switch fluorescence ratio of 0.987. ACATAACTGT gave a switch fluorescence ratio of 1.05. Sequence AACCAAAAGG has a switch fluorescence ratio of 1.04. Work on AATGCTTTCA yielded a switch fluorescence ratio of 1.03. TTCATTCTAC was tested, and the switch fluorescence ratio was 0.973. CTATTTGAGT gave a switch fluorescence ratio of 0.943. With TGGGCGGGAA the switch fluorescence ratio was 1.01. Sequence GCCTAAGGA has a switch fluorescence ratio of 0.944. GATATACCTA showed a switch fluorescence ratio of 1.12. Work on GAACAGCTAC yielded a switch fluorescence ratio of 1.92. With AGGAAACTAT the switch fluorescence ratio was 1.04. GAATGTGTGC gave a switch fluorescence ratio of 0.997. For GGCAGTAACG, the switch fluorescence ratio was 1.08. In the case of TTGACAGGGG, the switch fluorescence ratio was 1.37. CCGAGCGGGT gave a switch fluorescence ratio of 1.49. For CGTGTTATAT, the switch fluorescence ratio was 0.996. Sequence CAGTCTGGGT has a switch fluorescence ratio of 1.01. TGCGGAAGCT was tested, and the switch fluorescence ratio was 0.985. For AAGGGCCCCG, the switch fluorescence ratio was 0.956. With AGAGTCCTAT the switch fluorescence ratio was 1. In the case of CCAGCGCCAG, the switch fluorescence ratio was 1.08. In the case of CCGGGAATGG, the switch fluorescence ratio was 1.7. Sequence AATGTAATTG has a switch fluorescence ratio of 0.98. For GTTACATTAC, the switch fluorescence ratio was 1.46. Sequence GGTTCGAAAA has a switch fluorescence ratio of 0.949. GCAGATAGTC was tested, and the switch fluorescence ratio was 1.16. ACCACTTCA was tested, and the switch fluorescence ratio was 1.11. Sequence ACGCGATTAA has a switch fluorescence ratio of 1.16. In the case of TTGCAAATAT, the switch fluorescence ratio was 2.97. In the case of CTAGGTTCG, the switch fluorescence ratio was 0.928. AATCTAAATC gave a switch fluorescence ratio of 1.02. With TTTCTGCCGA the switch fluorescence ratio was 1.28. TACCTTTGAT showed a switch fluorescence ratio of 1.07. Sequence TCTTCGGGG has a switch fluorescence ratio of 0.989. Sequence GCCCAAGTTA has a switch fluorescence ratio of 1.03. TCGATGACAG gave a switch fluorescence ratio of 0.967. In the case of GTTTTTGTTC, the switch fluorescence ratio was 0.958. For GCAACTAATG, the switch fluorescence ratio was 0.949. In the case of CCGGGAAGAC, the switch fluorescence ratio was 3.58. Sequence AAGTCTCACC has a switch fluorescence ratio of 0.991. ACTTAAGCC gave a switch fluorescence ratio of 1.01. In the case of CTAGGCGAGG, the switch fluorescence ratio was 0.994. GCCCATGTTA gave a switch fluorescence ratio of 1.02. GGCGTTTTCA gave a switch fluorescence ratio of 1.05. Work on GGCGCGTCAG yielded a switch fluorescence ratio of 1. With CTCGGGGCGC the switch fluorescence ratio was 1.03. Sequence GCCATAGC has a switch fluorescence ratio of 1.03. In the case of GGCAAAACGC, the switch fluorescence ratio was 1.02. For TTCTGTTCAG, the switch fluorescence ratio was 1. In the case of CCGTAAAA, the switch fluorescence ratio was 1.1. For TGGCTGATAG, the switch fluorescence ratio was 0.954. In the case of ACGATTTCC, the switch fluorescence ratio was 1.14. TTGATATTAG was tested, and the switch fluorescence ratio was 0.996. Sequence TAGTTAACG has a switch fluorescence ratio of 1.04. In the case of GCGGAGAAAG, the switch fluorescence ratio was 0.985. In the case of CCCCTGATAG, the switch fluorescence ratio was 1.18. For AAATCTATAC, the switch fluorescence ratio was 1.13. TCTAAGAGAG gave a switch fluorescence ratio of 1.04. GGAGAGGGAA gave a switch fluorescence ratio of 0.993. In the case of TACATATGGG, the switch fluorescence ratio was 1.01. For CTTTCCAGTA, the switch fluorescence ratio was 1.03. GAAGATCTGT was tested, and the switch fluorescence ratio was 0.989. GGGATTGGCG gave a switch fluorescence ratio of 1.01. For TGGCAGCATG, the switch fluorescence ratio was 0.95. Sequence CGAAAGAAAG has a switch fluorescence ratio of 1.01. Sequence ATACTGGGAA has a switch fluorescence ratio of 1.01. GGCTTAGTA gave a switch fluorescence ratio of 1.02. Sequence ATCAATAGGA has a switch fluorescence ratio of 0.92. GGTGAAGCTA gave a switch fluorescence ratio of 0.994. GGGCATGACA was tested, and the switch fluorescence ratio was 0.999. Sequence AACGCCTATG has a switch fluorescence ratio of 0.992. For TCCGGACAAA, the switch fluorescence ratio was 1.05. In the case of GCTTCATTTG, the switch fluorescence ratio was 1. In the case of AGTGCCAGAT, the switch fluorescence ratio was 0.992. Sequence CCTTCTTAGG has a switch fluorescence ratio of 1.02. CAGACTCTTA showed a switch fluorescence ratio of 0.939. TGTGCGCTGG was tested, and the switch fluorescence ratio was 0.991. With GTGGCGCGC the switch fluorescence ratio was 0.97. With CTTTAAAGT the switch fluorescence ratio was 0.982. Sequence GACAGCCATA has a switch fluorescence ratio of 1.04. Sequence TTACGGATCT has a switch fluorescence ratio of 1.06. For TTAGAACCGG, the switch fluorescence ratio was 1.02. With GCTTTACGAT the switch fluorescence ratio was 1.13. GGCCAATCCG was tested, and the switch fluorescence ratio was 1.09. In the case of GAGGCATATG, the switch fluorescence ratio was 1. For GGTGCTTAAG, the switch fluorescence ratio was 0.996. Sequence CCCAAAGTAA has a switch fluorescence ratio of 1.18. Work on CACAGAACGT yielded a switch fluorescence ratio of 1.11. Work on GGGGATCGGC yielded a switch fluorescence ratio of 0.951. With GATGATCTCT the switch fluorescence ratio was 0.995. Work on GCAAGGAGAT yielded a switch fluorescence ratio of 0.982. For TTGTTTTGAC, the switch fluorescence ratio was 1.04. For ACTGGTAAGA, the switch fluorescence ratio was 0.994. Sequence TGTTCGGAGA has a switch fluorescence ratio of 0.975. Sequence GGGTGTGCAG has a switch fluorescence ratio of 1.04. In the case of TTGCCACTGC, the switch fluorescence ratio was 1.04. TGATGCAACA was tested, and the switch fluorescence ratio was 1.01. In the case of GCCCCGCTAA, the switch fluorescence ratio was 1.58. In the case of TATTAAGTAC, the switch fluorescence ratio was 1.4. AGAGATTTCG gave a switch fluorescence ratio of 1.02. Work on GTGCACGG yielded a switch fluorescence ratio of 1.05. With TGCTCTCTGT the switch fluorescence ratio was 0.974. In the case of CTTCACCAGT, the switch fluorescence ratio was 1.24. AGCCCAATTT gave a switch fluorescence ratio of 0.994. For CACTCTTATG, the switch fluorescence ratio was 0.988. Sequence AGGAAATCAG has a switch fluorescence ratio of 0.991. GCTGGTTTGC gave a switch fluorescence ratio of 0.991. For GAAGAAGATG, the switch fluorescence ratio was 0.976. For ATATATCGCT, the switch fluorescence ratio was 1.01. CAGCCCGGAG was tested, and the switch fluorescence ratio was 1.14. CGGACAGCGA was tested, and the switch fluorescence ratio was 1.64. Sequence GGTTTGGTAC has a switch fluorescence ratio of 0.993. AATATATCTC gave a switch fluorescence ratio of 0.961. GCACCTCGCC showed a switch fluorescence ratio of 1.09. AGGGACAACG was tested, and the switch fluorescence ratio was 1.11. Sequence GTCCTGTCAC has a switch fluorescence ratio of 1.01. For TGCTCACAGA, the switch fluorescence ratio was 1.03. GTGCGTAGGG showed a switch fluorescence ratio of 1. ACCGGGTCAA was tested, and the switch fluorescence ratio was 1.09. GCCATTACG showed a switch fluorescence ratio of 1.06. In the case of CGCATTCGCA, the switch fluorescence ratio was 1.15. TATTTTAAGA gave a switch fluorescence ratio of 1.15. AGTAGGACAC gave a switch fluorescence ratio of 1.02. TAAAGAACA gave a switch fluorescence ratio of 0.989. With CTCAGACAGT the switch fluorescence ratio was 1.16. With CTGCTCACCT the switch fluorescence ratio was 1.13. In the case of CAGTTGCAGC, the switch fluorescence ratio was 1.03. Sequence GAAGGGTCGC has a switch fluorescence ratio of 1. Work on GGGGTGAGAT yielded a switch fluorescence ratio of 0.97. For ACGGACTAGG, the switch fluorescence ratio was 1.13. AATGCTGTCA gave a switch fluorescence ratio of 0.978. Work on ACAGGACCAT yielded a switch fluorescence ratio of 1.12. ATGTCGACCT showed a switch fluorescence ratio of 1. In the case of GAAAGCCTGG, the switch fluorescence ratio was 0.993. GGTAATATCG gave a switch fluorescence ratio of 0.994. Sequence GTGATGTTTG has a switch fluorescence ratio of 0.979. Sequence CAAATCATTT has a switch fluorescence ratio of 1.03. GATAGCGTTT was tested, and the switch fluorescence ratio was 1.02. Sequence GGAACTTAAT has a switch fluorescence ratio of 1.01. Work on GCTGTACATA yielded a switch fluorescence ratio of 1.04. Sequence TGTTTGCAG has a switch fluorescence ratio of 0.995. Work on TCATACCCTT yielded a switch fluorescence ratio of 1.09. CACACGGATA showed a switch fluorescence ratio of 1.06. For CGACTCAGGC, the switch fluorescence ratio was 1.42. AATTTATCTT was tested, and the switch fluorescence ratio was 1.06.
